Measurements as given in paper PMC12623964 (The EMBO Journal, 2025).

Experiments:
Test in all cases: fluorescence polarisation; steady-state fluorescence anisotropy; 100 nM AF-594-labeled DnaJB1-G194C titrated with fibrils (concentration as α-syn monomers); 3.5 h at 25 °C; 50 mM HEPES-KOH (pH 7.5), 50 mM KCl, 5 mM MgCl2, 2 mM DTT; equilibrium binding model
Settings in all cases: both partners purified
[1] = target: α-synuclein fibrillar polymorph Ri (ribbons) (human, UniProt P37840)
[2] = target: α-synuclein fibrillar polymorph F91 (human, UniProt P37840)
[3] = target: α-synuclein fibrillar polymorph F65 (human, UniProt P37840)
[4] = target: T1, C-terminally truncated α-synuclein (aa 1–110) fibrillar polymorph F110 (human, UniProt P37840 partial chain)
T1 construct: α-synuclein, human, residues 1-110 (C-terminal truncation), as amyloid fibrils; Amyloid fibril (many copies of the chain); Makky et al, 2016; also called F110 fibrils; C-terminal truncated mutant F110; source: recombinant; aggregated in 50 mM Tris-HCl 150 mM KCl, pH 7.5, 600 rpm

[5] = target: α-synuclein fibrillar polymorph FM (human, UniProt P37840)
[6] = target: α-synuclein fibrillar polymorph XG (human, UniProt P37840)

Measured: binding result

B1: AF-594-labeled DnaJB1 mutant G194C (natural protein, human)
chain: MGKDYYQTLGLARGASDEEIKRAYRRQALRYHPDKNKEPGAEEKFKEIAEAYDVLSDPRKREIFDRYGEEGLKGSGPSGGSGGGANGTSFSYTFHGDPHAMFAEFFGGRNPFDTFFGQRNGEEGMDIDDPFSGFPMGMGGFTNVNFGRSRSAQEPARKKQ[skipping about 150 residues]PERIPQTSRTVLEQVLPI
modifications: Alexa Fluor 594 C5 maleimide on the free reactive cysteine (G194C)
notes: DnaJB1, J-domain protein co-chaperone of human Hsc70, with G194C for labelling; Labelling efficiency 90% or higher; also called DnaJB[…]C
binds: [1] | [2] | [3] | [4] | [5] | [6]
